The other results are listed elsewhere or left out.

The experiment has as its target T1, OsWOX13 (Oryza sativa, UniProt Q5QMM3 1-267).
T1 sequence: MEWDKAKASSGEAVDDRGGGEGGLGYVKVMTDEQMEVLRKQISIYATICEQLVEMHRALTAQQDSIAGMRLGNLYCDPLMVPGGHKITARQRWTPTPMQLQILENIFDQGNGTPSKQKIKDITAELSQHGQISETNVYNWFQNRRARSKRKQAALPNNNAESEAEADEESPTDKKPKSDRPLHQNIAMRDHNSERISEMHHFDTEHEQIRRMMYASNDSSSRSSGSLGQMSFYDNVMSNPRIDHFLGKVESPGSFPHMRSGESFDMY
Description: protein-binding microarray (RPBM); PBS, 2% BSA, 51.3 ng/ul salmon testes DNA, 50 uM zinc acetate, 200 nM TF, 25 C, 1 h; high values mean tight binding. Conditions: protein: recombinant; tags: N-terminal polyhistidine and DsRed monomer fusion (pET32a); label: CyDye5-dUTP incorporated in the synthesized complementary strand; 3' TTTTT single-stranded linker to array surface; dsDNA, one strand shown. In short, it runs like this:
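Binding signal is defined as the fluorescence intensity of each feature in arbitrary units, read on an Axon 4000B scanner. Transcription factors with N-terminal polyhistidine and DsRed fusions came from E. coli BL21-CodonPlus and were purified on Ni–NTA. They were incubated at 200 nM for 1 h at 25 °C on a custom Agilent array that had been made double-stranded with Cy5-dUTP, with 50 µM zinc acetate present, and the array was washed.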
“AGACTTTCAGTTAGTTTATTGACATAAATTACCGCCATAACGGAGTCACCTAGTGCAG”: the binding signal is 12900 fluorescence intensity (a.u.). Then “CTTAATTTGAGTCAACTTAAATTTTAGTTTCTACATGATGCGGAGTCACCTAGTGCAG”, with 46400 fluorescence intensity (a.u.); and “ACGATGATTACCTGCTCGTTAAGAAAAGCTTTCTACTTGTCGGAGTCACCTAGTGCAG”, with 22600 fluorescence intensity (a.u.); and “TGTGCAATGTCATCAATTTATGTATTGTGTGTACCCTATCCGGAGTCACCTAGTGCAG”, with 4340 fluorescence intensity (a.u.). “GATATCGTACGACAAGGCTTGGAGGGCAAAACAGAAAGCACGGAGTCACCTAGTGCAG”: the binding signal is 24200 fluorescence intensity (a.u.). As for “GACAAATTATTAAACTTGAACAAAATCAGTGGTACCAAATCGGAGTCACCTAGTGCAG”, the binding signal is 9910 fluorescence intensity (a.u.). For “GGCTAATATACTGGATTAATTCATGTTTGCTACTAGCCCCCGGAGTCACCTAGTGCAG”, the binding signal is 11000 fluorescence intensity (a.u.). To “CACTGACAGCCTAGCTAACTGGGAATAGCTAGGCGTACTTCGGAGTCACCTAGTGCAG” belongs 5500 fluorescence intensity (a.u.). As for “CTAATTTACTCATCATAGGGACAACAAAACATCTGGGTTACGGAGTCACCTAGTGCAG”, the binding signal is 7840 fluorescence intensity (a.u.). As for “AAAATTTGTCAATAAATATATAGGCAGTCCCGGTCCGTTCCGGAGTCACCTAGTGCAG”, the binding signal was 4490 fluorescence intensity (a.u.). In the case of “GGCGATTGACATGTGGGCCACGTCCTAACCTTGGGCCCACCGGAGTCACCTAGTGCAG”, the binding signal was 20500 fluorescence intensity (a.u.).

Take “ATCAGATTAGCAGCAGACCAAAGAATTCTTCAGTATCAAGCGGAGTCACCTAGTGCAG”: the binding signal is 5140 fluorescence intensity (a.u.). For “GCACTAAACAAAATGGTCTGATTGAGCCGAACAAGATAACCGGAGTCACCTAGTGCAG”, the binding signal was 12200 fluorescence intensity (a.u.). “CATAAATTACTTTAAATCTAAGCTCCACACTTCATGTGCCCGGAGTCACCTAGTGCAG”: the binding signal is 39500 fluorescence intensity (a.u.). Then “TGGATGATTGATGGAAGACGATCAGATTTTAGTTGAACCACGGAGTCACCTAGTGCAG”, with 46600 fluorescence intensity (a.u.); and “CCTGATGTGACGACCTCCCTGAATCCTCCTGATGTATACGCGGAGTCACCTAGTGCAG”, with 15100 fluorescence intensity (a.u.); and “GCCTCTCTCTCTTCTCTGATTGATTACTACTCCACTACAGCGGAGTCACCTAGTGCAG”, with 25700 fluorescence intensity (a.u.).

On to “GATAATTAATCAATGATGAACCTCCTGTAAGAAACTGAAGCGGAGTCACCTAGTGCAG”, for which the binding signal is 25400 fluorescence intensity (a.u.). In the case of “TCTGCAATGATAAGACAATGATTAGAACCATGAAACTCGACGGAGTCACCTAGTGCAG”, the binding signal is 9950 fluorescence intensity (a.u.). Turning to “ATACAACTAAATTAAATGGTTGGACTCCTCATGTTGAAGACGGAGTCACCTAGTGCAG”, the binding signal is 5220 fluorescence intensity (a.u.). On to “GTCATGGCAATCTTAGATAGCCAATCAAAGTGTCTGAGTACGGAGTCACCTAGTGCAG”, for which the binding signal is 11100 fluorescence intensity (a.u.). To “ACTTTAACTATTAATTTATTTTATATTATGTTACCAACGACGGAGTCACCTAGTGCAG” belongs 23900 fluorescence intensity (a.u.); to “ATTTGATGAATCTGTATATTAAATTGTCAATTTGTGTACCCGGAGTCACCTAGTGCAG”, 19400 fluorescence intensity (a.u.); to “AATCTGATTTTCTGATTGCTATGGATTGTTTTCACACAAACGGAGTCACCTAGTGCAG”, 14700 fluorescence intensity (a.u.). “GGAATTAATTAATGAATCACGTAGGCTACCTGGGTTGAAGCGGAGTCACCTAGTGCAG”: the binding signal is 45800 fluorescence intensity (a.u.).

As to “TTGTAGATTGTTTAGGGATTGTTGTGTTGTTGTTCATTATCGGAGTCACCTAGTGCAG”, the binding signal was 15600 fluorescence intensity (a.u.). Then “GTTATATGTGTATGACAGATTGATGTGATGGAAAATATCCCGGAGTCACCTAGTGCAG”, with 9650 fluorescence intensity (a.u.). In the case of “TATATTTAAATCATTAATATCTTGGTCCAACTCATTTTGGCGGAGTCACCTAGTGCAG”, the binding signal is 5780 fluorescence intensity (a.u.). Turning to “CGTAATTAGTAGGTTGATTACTATTTGCTAATCATAAGTGCGGAGTCACCTAGTGCAG”, the binding signal was 65200 fluorescence intensity (a.u.).

Regarding “GTGAGTAAATAAAATCATTTATTGAAGATTACAATTGTATCGGAGTCACCTAGTGCAG”, the binding signal was 6590 fluorescence intensity (a.u.). Then “GCCATAAAATTAGGAACAAAATTATGTAGCTCTGTGATGGCGGAGTCACCTAGTGCAG”, with 6670 fluorescence intensity (a.u.); and “CCTAATTAATCCGTCATTAGCAAATGTGGGTTACTGTAGCCGGAGTCACCTAGTGCAG”, with 35500 fluorescence intensity (a.u.).

On to “ATAAGTTTCCATCGGCTGATTGCGTTCTTTCCTTAACTGACGGAGTCACCTAGTGCAG”, for which the binding signal was 4330 fluorescence intensity (a.u.).

With “CATGGACGATCAAATTTAAACACGAAAATTTATGGTTGCACGGAGTCACCTAGTGCAG”, the binding signal is 3630 fluorescence intensity (a.u.).

In the case of “TGTTGACAATAATTGTTGACATTGTCGATGAGACGAGAGACGGAGTCACCTAGTGCAG”, the binding signal is 26000 fluorescence intensity (a.u.). On to “GTTGTTAATGTACATCCATCATGATTTCCAATTCAGTTTCCGGAGTCACCTAGTGCAG”, for which the binding signal is 10500 fluorescence intensity (a.u.). “CAACAAGATTGTTGTCGGACTAATGCCTCACTGCTTGGTCCGGAGTCACCTAGTGCAG”: the binding signal is 3540 fluorescence intensity (a.u.).

For the sequence “ATCAAATTTTGTGATGAGCAGAGCAGTCACTGCCGTGCTACGGAGTCACCTAGTGCAG”, the binding signal was 6810 fluorescence intensity (a.u.). As for “TTTAAACAGATCCCGTCCATTCCAATTGTAGCGAACCGGTCGGAGTCACCTAGTGCAG”, the binding signal is 7440 fluorescence intensity (a.u.). To “TGATGGAATTAGAATATTAATAATTAACATAGGGTGCAATCGGAGTCACCTAGTGCAG” belongs 8280 fluorescence intensity (a.u.); to “GTCAGATTGATAACGCATGCAATGGCCGTTGGATCGCTGCCGGAGTCACCTAGTGCAG”, 45700 fluorescence intensity (a.u.); to “TTGTGAAGGTAATTAAAGGAATTTATCAATTGTGTTGACGCGGAGTCACCTAGTGCAG”, 5510 fluorescence intensity (a.u.).

For “CACTAATCACTAATCACTCACTCACTCTCACTCTCGCTCCCGGAGTCACCTAGTGCAG”, the binding signal was 30400 fluorescence intensity (a.u.).

Regarding “ATTGAATAATCAAAATTTCAATCTTTGATCGATGAGGTATCGGAGTCACCTAGTGCAG”, the binding signal is 12100 fluorescence intensity (a.u.).

Regarding “CAACCTTAAATTACCAAATCTGGTTGCACGAAAATATAAGCGGAGTCACCTAGTGCAG”, the binding signal was 3920 fluorescence intensity (a.u.). To “AGATCGAATCAATCATACAGGAAAGGTGCCTAACGAACCCCGGAGTCACCTAGTGCAG” belongs 5510 fluorescence intensity (a.u.); to “TGTCACATCAATCATCTCCAATTTAGGGCTTATTCGGAATCGGAGTCACCTAGTGCAG”, 31000 fluorescence intensity (a.u.). With “GTTAAACTTGGTTAATTGTGGTGTGTATAATTTGTTAGGTCGGAGTCACCTAGTGCAG”, the binding signal was 14300 fluorescence intensity (a.u.). Then “ATGATTTGATGAAGAGGCCGGCTGTGAAGAGGGTGAGAGACGGAGTCACCTAGTGCAG”, with 12700 fluorescence intensity (a.u.).

With “GCCTACAATTAATAGATCTGTTTATTTAATGGAGTAGACGCGGAGTCACCTAGTGCAG”, the binding signal was 14000 fluorescence intensity (a.u.).

As for “AAAATAATTTTGAAATGAGATATCACGTTCGCTGTGGATGCGGAGTCACCTAGTGCAG”, the binding signal is 12400 fluorescence intensity (a.u.). Turning to “AGGTTAATTTCTCCTCATCCTCCTTTGTTGAGCTCCAAGCCGGAGTCACCTAGTGCAG”, the binding signal was 17100 fluorescence intensity (a.u.). For the sequence “AGTAGTTAATTAGAACACTGAATATATTAGCTGTGCTAAGCGGAGTCACCTAGTGCAG”, the binding signal was 14500 fluorescence intensity (a.u.). On to “TATATATTGACTACCCAGTTGCACTTTAAATTATGGATAGCGGAGTCACCTAGTGCAG”, for which the binding signal is 3860 fluorescence intensity (a.u.).

The record behind these values is PMC7819943, “Rice protein-binding microarrays: a tool to detect cis-acting elements near promoter regions in rice”.
